Data from the RNAGym collection of RNA variant scans (doi:10.1093/nar/gkz1192).
Read counts are not given, so values of variants with three or more changes are uncertain.

B1: CPEB3 Ribozyme (parent)
chain: UAACAGGGGGCCACAGCAGAAGCGUUCACGUCGCAGCCCCUGUCAGAUUCUGGUGAAUCUGCGAAUUCUGCUGUAUAUCUC

Variants of: B1
Assay: self-cleavage, relative activity (ratio to wild type); higher = more cleavage; in vitro, sequencing
Outline: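 After error-prone PCR and barcoding, CPEB3 ribozyme mutant libraries were transcribed with T7 RNA polymerase at 37°C for 5 hours, then given 15 min with DNase I before an EDTA stop, and they cleaved during both steps. Reverse transcription with template switching preceded Illumina sequencing. Relative activity divides a variant's cleaved/total read fraction by the unmutated ribozyme's. At least 5 reads were required per variant, and three batches were averaged.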
UAACAGGGGGCCACAGCAGAAGCGUUCACGACGCAGCCCCUGUCAGAUUCUGGUGAAUCUGCGAAUUCUGCUGCUUAUCUC gave a self-cleavage of 0.9.
UAACAGGGGGCCACAGCAGAAGCGUUCACGACGCAGCCCCUGUCAGAUUCUGGUGAAUCUGCGAAUUCUGCUGCGUAUCUC gave a self-cleavage of 0.63.
UAACAGGGGGCCACAGCAGAAGCGUUCACGACACAGCCCCUGUCGGAUUCUUGUGAAUCUGCGAACUCUGCUGUAUAUCCC gave a self-cleavage of 0.09.
Work on UAACAGGGGGCCACAGCAGAAGCGUUCACGCCGCAGCCCCUGUCAGGUUCUGGUGGAUCUGCGAAUUCUGCUGUAUGUCUC yielded a self-cleavage of 0.47.
Work on UAACAGGGGGCCACAGCAGAAGCGUUCACGACGCAGCCCCUGUCAGAUCCAGGUGAAUCUGCGAAUUCUGCUGCAUAUCUC yielded a self-cleavage of 0.54.
Variant UAACAGGGGGCCACAGCAGAAGCGUUCACGCCGCCGCCCCUGUCAGUUUCUGGUGAAUCCGCGAAUUCAGCUGUAUAUCUC has a self-cleavage of 0.06.
UAACAGGGGGCCACAGCAGAAGCGUUCACGCCGCAGCCCCUGUCAGAUUCUGGUGAGUCUGCGAAUUCUUCUGUAUAUCUC gave a self-cleavage of 0.18.
Variant UAACAGGGGGCCACAGCAGAAGCGUUCACGCCGCAGCCCCUGUCAGAUUCUGGUGAUUCUGCGAAUUCUGCUGUAUUUCUC has a self-cleavage of 0.49.
UAACAGGGGGCCACAGCAGAAGCGUUCACGACGCAGCCCCAGUCAGAUUCUGGUGUAUCUGCGAAUUCUGCUGUAUAUCUC showed a self-cleavage of 0.16.
UAACAGGGGGCCACAGCAGAAGCGUUCACGCCGCGGCCCCUGUCAGAUUCUGGUGAUUCUGCGAAUUCUGCUGUAUAUCUC showed a self-cleavage of 0.83.
UAACAGGGGGCCACAGCAGAAGCGUUCACGACGCAGCCCCUGUCAGAUUCUGGCGAAUCUGCGAAUCCAGCUGUAUAUCUC gave a self-cleavage of 0.08.
Variant UAACAGGGGGCCACAGCAGAAGCGUUCACGCCGCAGCCCCUGUCUGAUUCUGGUGAAUCUGCGUAUCCUGCCGUAUAACUC has a self-cleavage of 0.11.
Work on UAACAGGGGGCCACAGCAGAAGCGUUCACGCCGCUGCCCCUGUCAGAUUCUGGUGAAUCUGCGUAUUCUGCUGUAUAUCUC yielded a self-cleavage of 0.15.
Work on UAACAGGGGGCCACAGCAGAAGCGUUCACGCCGCAGCCCCUGUCCGAUUCUGGCGAAUCUGCGAAUUCUGCUGUAUAUCUC yielded a self-cleavage of 0.16.
UAACAGGGGGCCACAGCAGAAGCGUUCACGACGCAGCCCCUGUCAGAUACUGGUGAAUCUGCGAUUUCUGCUGUAUUUCUC showed a self-cleavage of 0.09.
In the case of UAACAGGGGGCCACAGCAGAAGCGUUCACGCCGCUGCCCCAGUCAGAUUCUGGUGAAGCUGCGAAUUCUGCUGUAUAUCUC, the self-cleavage is reported as 0.19.
Work on UAACAGGGGGCCACAGCAGAAGCGUUCACGACGCAGCCCCCGUCAGAUUCUGGUGAUUCUGCGAAUUCUGCUGUAUAUCUC yielded a self-cleavage of 0.29.
For UAACAGGGGGCCACAGCAGAAGCGUUCACGCCGCAGCCCCUGUCGGAUUCUGGUGAAUCUGCGAAUUCUGCUGUAUAUCCC, the self-cleavage was 0.69.
With UAACAGGGGGCCACAGCAGAAGCGUUCACGACGCAGCCCCUGUCAGAUUCCGGCGAAUCUGCGAAUUCUGCUGUAUAUCUC the self-cleavage was 0.41.
For UAACAGGGGGCCACAGCAGAAGCGUUCACGACGCAGCCCCUGUCAGAUCCUGGUGAAUCUGCGAAUUCUGCUGUAUUUCUC, the self-cleavage was 0.22.
With UAACAGGGGGCCACAGCAGAAGCGUUCACGACUCAGCCCCCGUUAGAUUCUGGUGAAUCUGCGAAUUCUGCUGUAUACCUC the self-cleavage was 0.16.
With UAACAGGGGGCCACAGCAGAAGCGUUCACGCCGAAGCCCCUGUCAGCUUCUGGUGAAUCUGCGAAUUCUGCUGUAUGUCUC the self-cleavage was 0.08.
Variant UAACAGGGGGCCACAGCAGAAGCGUUCACGCCGCAGCCCCUGUCGGACUCUGGUGAAUCUGCGAAUUCUGCUGCAUAUCUC has a self-cleavage of 0.13.
UAACAGGGGGCCACAGCAGAAGCGUUCACGCCGCUGCCCCUGUCAGAUUCUGGUGAAUCAGCGUAUUCUGCUGUAUAUCUC gave a self-cleavage of 0.09.
In the case of UAACAGGGGGCCACAGCAGAAGCGUUCACGCCGCAGCCCCUGUCGGAUUCUGGUGAUUCUGCGAAUUCUGCUGUACAUCUC, the self-cleavage is reported as 0.18.
UAACAGGGGGCCACAGCAGAAGCGUUCACGCCGUAGCCCCAGUCAGAUUCUGGAGAAUCUGCGAAUCCUGCUGUAUAUCUC showed a self-cleavage of 0.09.
Variant UAACAGGGGGCCACAGCAGAAGCGUUCACGAAGCAGCCCCUGUCAGAUUCUGGUGUAUCCGCGAAUUCUGCUGUAUAUCUC has a self-cleavage of 0.11.
With UAACAGGGGGCCACAGCAGAAGCGUUCACGACGCAGCCCCUGUCAGACUCAGGUGAAUCUGCGAAUUCUGCUGUAUAUCUU the self-cleavage was 0.4.
In the case of UAACAGGGGGCCACAGCAGAAGCGUUCACGCCGCGGCCCCUGUCAGAUUCUGGUGAAUCUGCGAAUUCUGCGGUAUAUCUC, the self-cleavage is reported as 1.51.
Work on UAACAGGGGGCCACAGCAGAAGCGUUCACGCCGCAGCCCCUGUCAGAUUCUGGUGAAUCUGCGUAUUCUGCUGUAUAUCCC yielded a self-cleavage of 0.3.
With UAACAGGGGGCCACAGCAGAAGCGUUCACGACGCAGCCCCUGUCAGACUCUGGUGAAUCUGCACAUUCUGCUGUAUAUCUC the self-cleavage was 0.32.
In the case of UAACAGGGGGCCACAGCAGAAGCGUUCACGACACUGCCCCUGUCAGAUUCUGGUGAAUCUGCGAAUUCUGCUGUACAUCUC, the self-cleavage is reported as 0.08.
In the case of UAACAGGGGGCCACAGCAGAAGCGUUCACGACGCAGCCCUUGUCAGAUACAGGUGGAUCUCCGAAUUCUGCUGUAUAUCUC, the self-cleavage is reported as 0.1.
With UAACAGGGGGCCACAGCAGAAGCGUUCACGCCGCAGCCCCUGUCUGAUUCUGGUGCACCUGCGAGUUCCGCUGUAUAUCUC the self-cleavage was 0.13.
